# Test results published in the supplement of paper PMC8728848.
# The other results are listed elsewhere or left out.
# Columns and labels:
# Assay in all cases: glycan array binding signal (z-score within array); higher = stronger binding
# Details in all cases: glycan notation: IUPAC condensed, linker removed
# [1] = target: Neu5Ac(a2-3)Gal(b1-4)Glc
# Summary of the method: (§1)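 Glycan array data were curated from 3228 arrays in the Consortium for Functional Glycomics database and kept only where the protein sequence was available. Glycan names were converted to IUPAC-condensed notation, and columns mapping to the same glycan were averaged. The binding signal is a within-array Z-score, averaged across arrays of the same protein sequence at different concentrations or buffers and across linkers. Negative Z-scores can be read as non-binding.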
# [2] = target: Neu5Ac(a2-3)Gal(b1-4)GlcNAc
# Summary of the method: as §1
# [3] = target: Neu5Ac(a2-3)Gal(b1-4)GlcNAc(b1-2)Man
# Summary of the method: as §1
# [4] = target: Neu5Ac(a2-3)Gal(b1-4)GlcNAc(b1-2)Man(a1-3)[GlcNAc(b1-4)][Neu5Ac(a2-3)Gal(b1-4)GlcNAc(b1-2)Man(a1-6)]Man(b1-4)GlcNAc(b1-4)GlcNAc
# Summary of the method: as §1
# [5] = target: Neu5Ac(a2-3)Gal(b1-4)GlcNAc(b1-2)Man(a1-3)[Neu5Ac(a2-3)Gal(b1-4)GlcNAc(b1-2)Man(a1-6)]Man(b1-4)GlcNAc(b1-4)GlcNAc
# Summary of the method: as §1
# [6] = target: Neu5Ac(a2-3)Gal(b1-4)GlcNAc(b1-2)Man(a1-3)[Neu5Ac(a2-3)Gal(b1-4)GlcNAc(b1-2)Man(a1-6)]Man(b1-4)GlcNAc(b1-4)[Fuc(a1-6)]GlcNAc
# Summary of the method: as §1
# [7] = target: Neu5Ac(a2-3)Gal(b1-4)GlcNAc(b1-2)Man(a1-3)[Neu5Ac(a2-6)Gal(b1-4)GlcNAc(b1-2)Man(a1-6)]Man(b1-4)GlcNAc(b1-4)GlcNAc
# Summary of the method: as §1
# [8] = target: Neu5Ac(a2-3)Gal(b1-4)GlcNAc(b1-2)[Neu5Ac(a2-3)Gal(b1-4)GlcNAc(b1-4)]Man(a1-3)[GlcNAc(b1-4)][Neu5Ac(a2-3)Gal(b1-4)GlcNAc(b1-2)[Neu5Ac(a2-3)Gal(b1-4)GlcNAc(b1-6)]Man(a1-6)]Man(b1-4)GlcNAc(b1-4)GlcNAc
# Summary of the method: as §1
# [9] = target: Neu5Ac(a2-3)Gal(b1-4)GlcNAc(b1-2)[Neu5Ac(a2-3)Gal(b1-4)GlcNAc(b1-4)]Man(a1-3)[GlcNAc(b1-4)][Neu5Ac(a2-3)Gal(b1-4)GlcNAc(b1-4)Man(a1-6)]Man(b1-4)GlcNAc(b1-4)GlcNAc
# Summary of the method: as §1
# [10] = target: Neu5Ac(a2-3)Gal(b1-4)GlcNAc(b1-2)[Neu5Ac(a2-3)Gal(b1-4)GlcNAc(b1-6)]Man(a1-6)[Neu5Ac(a2-3)Gal(b1-4)GlcNAc(b1-2)Man(a1-3)]Man(b1-4)GlcNAc(b1-4)GlcNAc
# Summary of the method: as §1
# [11] = target: Neu5Ac(a2-3)Gal(b1-4)GlcNAc(b1-2)[Neu5Ac(a2-3)Gal(b1-4)GlcNAc(b1-6)]Man(a1-6)[Neu5Ac(a2-3)Gal(b1-4)GlcNAc(b1-2)Man(a1-3)][GlcNAc(b1-4)]Man(b1-4)GlcNAc(b1-4)GlcNAc
# Summary of the method: as §1
# [12] = target: Neu5Ac(a2-3)Gal(b1-4)GlcNAc(b1-3)Gal
# Summary of the method: as §1
# [13] = target: Neu5Ac(a2-3)Gal(b1-4)GlcNAc(b1-3)Gal(b1-3)GlcNAc
# Summary of the method: as §1
# [14] = target: Neu5Ac(a2-3)Gal(b1-4)GlcNAc(b1-3)Gal(b1-4)GlcNAc
# Summary of the method: as §1
# [15] = target: Neu5Ac(a2-3)Gal(b1-4)GlcNAc(b1-3)Gal(b1-4)GlcNAc(b1-2)Man(a1-3)[Neu5Ac(a2-3)Gal(b1-4)GlcNAc(b1-3)Gal(b1-4)GlcNAc(b1-2)Man(a1-6)]Man(b1-4)GlcNAc(b1-4)GlcNAc
# Summary of the method: as §1
# [16] = target: Neu5Ac(a2-3)Gal(b1-4)GlcNAc(b1-3)Gal(b1-4)GlcNAc(b1-3)Gal(b1-4)GlcNAc
# Summary of the method: as §1
# [17] = target: Neu5Ac(a2-3)Gal(b1-4)GlcNAc(b1-3)Gal(b1-4)GlcNAc(b1-3)Gal(b1-4)GlcNAc(b1-2)Man(a1-3)[Neu5Ac(a2-3)Gal(b1-4)GlcNAc(b1-3)Gal(b1-4)GlcNAc(b1-3)Gal(b1-4)GlcNAc(b1-2)Man(a1-6)]GalNAc
# Summary of the method: as §1
# [18] = target: Neu5Ac(a2-3)Gal(b1-4)GlcNAc(b1-3)Gal(b1-4)GlcNAc(b1-3)GalNAc
# Summary of the method: as §1
# [19] = target: Neu5Ac(a2-3)Gal(b1-4)GlcNAc(b1-3)Gal(b1-4)GlcNAc(b1-3)[Neu5Ac(a2-3)Gal(b1-4)GlcNAc(b1-3)Gal(b1-4)GlcNAc(b1-6)]GalNAc
# Summary of the method: as §1
# [20] = target: Neu5Ac(a2-3)Gal(b1-4)GlcNAc(b1-3)Gal(b1-4)GlcNAc(b1-6)[Gal(b1-3)]GalNAc
# Summary of the method: as §1
# [21] = target: Neu5Ac(a2-3)Gal(b1-4)GlcNAc(b1-3)Gal(b1-4)[Fuc(a1-3)]GlcNAc
# Summary of the method: as §1
# [22] = target: Neu5Ac(a2-3)Gal(b1-4)GlcNAc(b1-3)GalNAc
# Summary of the method: as §1
# [23] = target: Neu5Ac(a2-3)Gal(b1-4)GlcNAc(b1-3)[Neu5Ac(a2-3)Gal(b1-4)GlcNAc(b1-6)]GalNAc
# Summary of the method: as §1
# [24] = target: Neu5Ac(a2-3)Gal(b1-4)GlcNAc(b1-6)GalNAc
# Summary of the method: as §1
# [25] = target: Neu5Ac(a2-3)Gal(b1-4)GlcNAc(b1-6)[Gal(b1-3)]GalNAc
# Summary of the method: as §1
# [26] = target: Neu5Ac(a2-3)Gal(b1-4)GlcNAc(b1-6)[Neu5Ac(a2-3)Gal(b1-3)]GalNAc
# Summary of the method: as §1
# [27] = target: Neu5Ac(a2-3)Gal(b1-4)GlcNAc6S
# Summary of the method: as §1
# [28] = target: Neu5Ac(a2-3)Gal(b1-4)[Fuc(a1-3)]GlcNAc
# Summary of the method: as §1
# [29] = target: Neu5Ac(a2-3)Gal(b1-4)[Fuc(a1-3)]GlcNAc(b1-2)Man
# Summary of the method: as §1
# [30] = target: Neu5Ac(a2-3)Gal(b1-4)[Fuc(a1-3)]GlcNAc(b1-3)Gal
# Summary of the method: as §1
# [31] = target: Neu5Ac(a2-3)Gal(b1-4)[Fuc(a1-3)]GlcNAc(b1-3)Gal(b1-4)GlcNAc
# Summary of the method: as §1
# [32] = target: Neu5Ac(a2-3)Gal(b1-4)[Fuc(a1-3)]GlcNAc(b1-3)Gal(b1-4)[Fuc(a1-3)]GlcNAc(b1-3)Gal(b1-4)[Fuc(a1-3)]GlcNAc
# Summary of the method: as §1
# [33] = target: Neu5Ac(a2-3)Gal(b1-4)[Fuc(a1-3)]GlcNAc(b1-3)GalNAc
# Summary of the method: as §1
# [34] = target: Neu5Ac(a2-3)Gal(b1-4)[Fuc(a1-3)]GlcNAc(b1-6)[Gal(b1-3)]GalNAc
# Summary of the method: as §1
# [35] = target: Neu5Ac(a2-3)Gal(b1-4)[Fuc(a1-3)]GlcNAc(b1-6)[Neu5Ac(a2-3)Gal(b1-3)]GalNAc
# Summary of the method: as §1
# [36] = target: Neu5Ac(a2-3)Gal(b1-4)[Fuc(a1-3)]GlcNAc6S
# Summary of the method: as §1
# [37] = target: Neu5Ac(a2-3)Gal6S(b1-4)GlcNAc
# Summary of the method: as §1
# [38] = target: Neu5Ac(a2-3)Gal6S(b1-4)[Fuc(a1-3)]GlcNAc
# Summary of the method: as §1
binder,measurement,setting,value
PX9937D-bvu-500-26-500 (Bacteroides vulgatus) (protein) DPVSDITDLNYWKTPEQFDSFVFGLHSRFRSHSWNMFLLGEARSDVFGGIPFGGEATQGMERFPYNTLNAENPGISGFGDLYQNINQMNLFISRTLHTDVLTESARNYYLGQVYGLRAYYMYQLYRSWGDVVFTEEPSLGFEVGKLAKAATPAAEIFEQVKKDIESSLSYFGSDYTIKEKKSLWSKAATLMLKADVYLWSAHRDGGEGDARTAKNALVDIQNNISRSNLDLMDTYQGVFAYDNKGNKEIIFTIHNELFEYNLWNGNNDLFPQADYLGKFYNADGTLINTSVENNFGIMRLMVKLENFKKFLPGDTRRDVTLKDVYNKVENGKLELVGVYPHKYWGVMNGSTRVRCDDYPIYRYSDLLLMLAEAKVLLGEDPATEINRVRRRAFGDAYDASTVGFPNQEVDKRPADAVLQERLFEFMLEGKRWYDLRRFGDSYVLDYTPAEPARLLWPINQGALTNNPLLKQTVGY,glycan array binding signal (z-score),[1],-0.033
same,glycan array binding signal (z-score),[2],0.038
same,glycan array binding signal (z-score),[3],-0.574
same,glycan array binding signal (z-score),[4],-0.229
same,glycan array binding signal (z-score),[5],-0.161
same,glycan array binding signal (z-score),[6],-0.13
same,glycan array binding signal (z-score),[7],-0.324
same,glycan array binding signal (z-score),[8],-0.306
same,glycan array binding signal (z-score),[9],-0.376
same,glycan array binding signal (z-score),[10],-0.087
same,glycan array binding signal (z-score),[11],-0.162
same,glycan array binding signal (z-score),[12],-0.564
same,glycan array binding signal (z-score),[13],-0.654
same,glycan array binding signal (z-score),[14],-0.075
same,glycan array binding signal (z-score),[15],0.163
same,glycan array binding signal (z-score),[16],-0.245
same,glycan array binding signal (z-score),[17],0.765
same,glycan array binding signal (z-score),[18],-0.365
same,glycan array binding signal (z-score),[19],-0.355
same,glycan array binding signal (z-score),[20],-0.474
same,glycan array binding signal (z-score),[21],-0.034
same,glycan array binding signal (z-score),[22],-0.482
same,glycan array binding signal (z-score),[23],-0.02
same,glycan array binding signal (z-score),[24],-0.316
same,glycan array binding signal (z-score),[25],-0.694
same,glycan array binding signal (z-score),[26],-0.545
same,glycan array binding signal (z-score),[27],-0.569
same,glycan array binding signal (z-score),[28],-0.476
same,glycan array binding signal (z-score),[29],0.114
same,glycan array binding signal (z-score),[30],-0.399
same,glycan array binding signal (z-score),[31],-0.399
same,glycan array binding signal (z-score),[32],-0.211
same,glycan array binding signal (z-score),[33],0.525
same,glycan array binding signal (z-score),[34],-0.331
same,glycan array binding signal (z-score),[35],0.402
same,glycan array binding signal (z-score),[36],-0.556
same,glycan array binding signal (z-score),[37],-0.307
same,glycan array binding signal (z-score),[38],-0.587
